From paper PMC4336329 (PLoS ONE, 2015)
Out of some 310,000 compounds screened, about 14,000 (4.5%) showed an effect of 50% or more. Effects have a minus sign here. This is one part of the list.

molecular target: human ether-à-go-go-related gene (hERG) potassium channel (human, UniProt Q12809); assay: primary screen, population patch clamp on CHO cells stably expressing hERG
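Note: peak tail current of the secondary pulse compared with the same well before compound.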

human ether-à-go-go-related gene (hERG) potassium channel, sequence (Q12809 whole entry, looked up): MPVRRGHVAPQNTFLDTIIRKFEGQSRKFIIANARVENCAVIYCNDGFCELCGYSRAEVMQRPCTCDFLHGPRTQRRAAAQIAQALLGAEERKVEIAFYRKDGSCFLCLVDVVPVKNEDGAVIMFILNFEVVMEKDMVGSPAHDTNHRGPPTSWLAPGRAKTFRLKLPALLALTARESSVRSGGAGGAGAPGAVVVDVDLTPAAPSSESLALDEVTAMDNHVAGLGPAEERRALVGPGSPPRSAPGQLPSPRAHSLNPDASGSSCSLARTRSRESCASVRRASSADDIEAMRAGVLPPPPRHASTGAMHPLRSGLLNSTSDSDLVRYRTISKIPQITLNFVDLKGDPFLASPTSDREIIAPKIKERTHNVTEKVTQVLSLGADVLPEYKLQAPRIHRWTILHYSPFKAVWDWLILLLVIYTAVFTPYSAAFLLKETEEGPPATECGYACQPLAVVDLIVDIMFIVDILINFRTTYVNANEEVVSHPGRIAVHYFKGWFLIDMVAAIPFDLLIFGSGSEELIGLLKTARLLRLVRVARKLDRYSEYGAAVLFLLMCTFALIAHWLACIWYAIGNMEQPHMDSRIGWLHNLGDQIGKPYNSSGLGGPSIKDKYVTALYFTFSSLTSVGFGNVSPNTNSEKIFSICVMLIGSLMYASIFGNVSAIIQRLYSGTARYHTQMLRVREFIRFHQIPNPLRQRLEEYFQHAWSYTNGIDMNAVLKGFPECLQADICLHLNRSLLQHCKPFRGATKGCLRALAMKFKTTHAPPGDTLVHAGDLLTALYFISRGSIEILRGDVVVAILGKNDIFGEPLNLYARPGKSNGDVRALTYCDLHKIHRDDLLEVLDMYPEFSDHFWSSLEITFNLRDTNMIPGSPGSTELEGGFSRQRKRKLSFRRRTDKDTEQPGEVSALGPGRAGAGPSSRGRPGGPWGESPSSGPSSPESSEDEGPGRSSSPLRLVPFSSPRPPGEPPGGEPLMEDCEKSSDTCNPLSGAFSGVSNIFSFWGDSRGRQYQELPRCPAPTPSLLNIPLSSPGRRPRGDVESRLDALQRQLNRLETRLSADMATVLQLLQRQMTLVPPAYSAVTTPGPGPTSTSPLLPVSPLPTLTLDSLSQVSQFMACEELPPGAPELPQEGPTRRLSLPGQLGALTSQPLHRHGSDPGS

SMILES | hERG current change (%, negative = inhibition) at 10uM
CCc1ccc(OCC(=O)Nc2nnc(C3CCCC3)s2)cc1 | 14.2%
Cc1cc(C(=O)CN2C(=O)NC3(CCCCC3C)C2=O)c(C)n1Cc1cccs1 (stereo not drawn) | -6.58%
CCOC(=O)COc1cc(N)c(Cl)cc1Cl | 4.53%
CCCOc1ccc(Br)cc1/C=N/NC(=O)c1cc(OC)c(OC)c(OC)c1 | 5.28%
COc1cc2c(cc1OC)CN(C(=O)c1ccc3[nH]c(C)c(C)c3c1)CC2 | -7.61%
CN(C)S(=O)(=O)N1CCC(Oc2ccc(C(=O)NCCc3cscn3)cc2)CC1 | 0.0832%
COC(=O)C1=C(C)NC(=O)NC1c1ccc(-c2ccccc2Cl)o1 (stereo not drawn) | 29.2%
CCOc1ccc(OCCCC(=O)NC2=NCCS2)cc1 | 16.9%
COc1ccc(N(CC(=O)NCCSCc2cccc(Cl)c2)S(C)(=O)=O)cc1 | -20.7%
O=C(Nc1nnc(S(=O)(=O)N2CCOCC2)s1)c1ccccc1Br | 4.05%
CSC(=O)NC(=O)NC(=O)c1ccc([N+](=O)[O-])cc1 | 15.6%
COc1ccccc1C1CC(c2cccc(NS(C)(=O)=O)c2)=NN1S(=O)(=O)c1ccccc1 (stereo not drawn) | 3.08%
Cn1c(SCC(=O)NNC(=S)Nc2ccccc2)nnc1-c1ccccc1 | 17.5%
Cc1ccc(NC(=S)NNC(=O)c2nnn(-c3ccccc3)c2C)cc1 | 4.82%
CN(C)CCCNCC(=O)c1c(-c2ccccc2)n(C)c2ccccc12.O=C(O)C(=O)O | -16%
CC(=O)c1cccc(NC(=O)CCCNC(=O)c2ccc(Cl)cc2)c1 | 2.99%
COc1ccc(Cc2nc3ccc(C(=O)NC(C)C)cc3o2)cc1 | 9.7%
COc1cccc(C(C(=O)NC(C)(C)C)N(C(=O)CCC(=O)Nc2cc(C)on2)C2CC2)c1OC (stereo not drawn) | 14.9%
CCCc1cc(-c2nc(N)ncc2-c2csc(C)n2)c(O)cc1OC | -9.9%
COc1ccc(CCNC(=O)c2nnn(-c3cc(C)cc(C)c3)c2N)cc1OC | -10.8%
COc1ccc(CNC(=O)CN2C(=O)NC(C)(c3cccc(Br)c3)C2=O)cc1 (stereo not drawn) | -0.0132%
CC(C)(C)C(=O)N=C1SC2CS(=O)(=O)CC2N1c1ccc2c(c1)OCO2 (stereo not drawn) | -17.6%
O=C(NCc1ccc(F)cc1)C1CCCN(c2cnccn2)C1 (stereo not drawn) | -65%
COC(=O)c1ccc(NC(=O)CC[NH+]2CCCCC2)cc1.[Cl-] | -16.3%
